Measurements taken from PubChem BioAssay (NCI).
The source holds several records for some structures; these can differ, active in one and inactive in another.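 For each line, cells grew in 96-well plates with the test compound present at a single concentration for 48 hours.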 For part of its entries the source gives two or more results. Only these are listed. The source may hold further records. For part of these data: This drug was run again and again over the years, at its own concentration, as given; each value is one run. Additions like (4×) give the number of equal values in this list. Entries with a single value are a further part of the results. Activity calls are given as the source filed them. How the source made its calls: active means growth percent below 10; inactive means the rest.

How the values were obtained:
SF-539 CNS = assay: NCI-60 one-dose screen, 48 h (100 = growth as untreated, 0 = no growth, -100 = all killed)
M14 melanoma = assay: as above; conditions: 0.25 µM

SMILES: COc1cccc2c1C(=O)c1c(O)c3c(c(O)c1C2=O)C[C@@](O)(C(=O)CO)C[C@@H]3OC1CC(N)C(O)C(C)O1 (stereo not given in full)
- growth (SF-539 CNS; 0.25 µM, runs of 2021): inactive: 26.1, 44.5, 32.5, 29.4, 30, 32, 29.7, 28.4, 22.4, 24.7, 22.2, 30.3 (2×), 25.7, 30.6, 19.5 (2×), 23.9, 24.4 (2×), 24.9, 23.2, 23.3 (2×), 26, 24.5 (2×), 21.2, 27.1, 24.2, 32.7, 28.1, 19.8, 29, 35.8, 21.6, 25.3, 23.5 (2×), 23.7, 21.8, 22.7, 25.5 (2×), 29.8 (2×), 31.1, 35.6, 22.8, 20.4, 17.2, 16.4, 12.3, 15, 23.4, 19%
- growth (SF-539 CNS; 0.25 µM, runs of 2022): active: -4.08, -3.13, -11.4, -4.37, 4.94, 8.37, 4.17, 7.73, 9.07% and inactive: 20.1, 22, 14.6, 10.4, 18, 13.1, 24.7, 14.3, 22.8, 12.8, 12.4, 41.2, 55.5, 20.6, 49.2, 39.5, 68.3, 12.9, 15.1%
- growth (SF-539 CNS; 25 µM, runs of 1991): active: -100 (2×), -98.8 (2×), -92, -97.6, -96 (2×), -94.3, -98.9, -90.2, -91.7, -82.6, -98.2, -97.1, -80.6, -67.1, -80.8, -84.4%
- growth (SF-539 CNS; 25 µM, runs of 1992): active: -98.8, -74, -65.8, -85.6, -55.3, -97.5 (4×), -93, -91.8, -76.5 (2×), -100 (5×), -90.6 (2×), -96.4 (2×), -75.2, -79.6 (2×), -74.7 (2×), -88.8, -89.5, -96.2, -94.1 (2×), -93.2 (2×), -93.6, -98.6 (2×), -71.7, -77.9, -82.3, -63.8, -88.9 (2×), -94.8, -91.9, -98.2, -99.2, -97, -92.5, -73.1, -88.2, -82, -64.4, -98.3 (2×), -99, -98.4, -93.5, -99.3 (2×), -91, -68.7, -72.1, -63.6, -82.7, -96.7 (3×), -97.1 (2×), -49.4, -98.1, -25.2, -66.8, -62.1, -70.4, -66.4, -78.2, -82.2, -90.8, -99.9, -80.7, -56, -93.1, -90.2, -83.9, -97.2 (2×), -83.3, -94.4, -95.7, -68.3, -99.4, -58.8, -53.6, -85.9, -79.1, -87, -97.8, -35.3, -81.3, -16.4, -96.5, -84, -91.1, 0.556, -86.5, -84.4, -92.9%
- growth (SF-539 CNS; 25 µM, runs of 1993): active: -58.2, -85.6, -51.5, -96.1, -77.2, -99.6, -57.2, -56, -47.8 (2×), -82.2, -99.5, -96.6, -8.84, -70.5, -68.3, -64.4, -100, -94 (2×), -76.9, -73.7, -71.6, -94.8, -95.5, -54.9, -84.5, -71.2, -91.2, -72.2, -87.4, -95.9, -11.6, -79.2, -82.6, -48.2, -84.7, -66.5, -87.3, -89.6, -62.5, -88.5, -99.4, -80.9, -91.8%
- growth (SF-539 CNS; 25 µM, runs of 1994): active: -43.3, -85.2, -36.3, -93.2, -46, -85, -82.9 (2×), -87.5, -58, -50.4, -88.3, -87.6, -66.7, -51.5, -100, -53.8, -65, -95.6, -48.9, -95.7, -96.1, -64.3, -50.6, -82, -98.2, -16.3, -43.6, -90.6, -41, -31.6, -93.5%
- growth (SF-539 CNS; 25 µM, runs of 1995): active: -43.9, -100, -56.5 (2×), -33.2, -10.5, -91.4, -93.6, -26, -47, -86.8, -61.2, -62.4, -59.5, -71.1, -78.1, -18.7, -80.6, -88, -90.5, -51.7, -96.7, -99.4, -29.6, -26.8, -54.9, -42.5, -42, -85.8, -24.8, -62.1, -40.9, -56.3, -82.9, -74, -59.4, -80.1, -37, -76.7%
- growth (SF-539 CNS; 25 µM, runs of 1996): active: -63.5, -38.3, -88.4, -38, -64.6, -59, -82.2, -39.1, -15.6, -48, -49.3, -80.6, -59.3, -63.2, -66.9, -57.7, -0.924, -49.1, -93.4, -67.9, -41.2, -58.6, -41.1, -29.6, -70.6, -74.8, -94, -48.7, -54.2, -36.8, -14.9, -32.4, -98.2, -87, -79.5, -68.6, -61.7, -42.5, -88, -88.7, -100, -45.5, -66.7, -90.7, -65.2, -72.5, -66.4% and inactive: 98.3%, 44.5%, 28.5%
- growth (SF-539 CNS; 25 µM, runs of 1997): active: 0, -63, -95.1, -47.2, -55, -68, -33.3, -45.2, -63.5, -83.8, -53.7, -90.3, -59.8, -56.3, -41.4, -97.2, -76, -93.6, -65.8, -37, -71.7, -75.9, -83.6, -69.3, -86, -9.05, -65.5, -71.4, 7.48, -46, -37.3, -76.6, -68.5% and inactive: 86.9%
- growth (SF-539 CNS; 25 µM, runs of 1998): active: -66.5, -64.9, -92.9, -44.3, -19.5, -18.8 (2×), -70.3, -93.6, -72, -80.2, -76.7, -54.5, -68.4, -58.2, -73.7, -41.4, -74.8, -48.4%
- growth (SF-539 CNS; 25 µM, runs of 1999): active: -56.2, -19, -72.6, -97.9, -53.5, 0.143, 0.366, -20, 3.26, -8.51% and inactive: 20.4%
- growth (SF-539 CNS; 25 µM, runs of 2000): active: -88.8, -100, -40.9, -71.5%
- growth (M14 melanoma; runs of 2006): inactive: 42.3%
- growth (M14 melanoma; runs of 2007): inactive: 29.7, 40.5, 39.9, 51.5, 53.3, 46.6, 56.1, 64.1, 54.4, 47.5, 58.7, 50.9, 54.2, 55.4, 52.5, 54.9, 59.5, 48.8, 74.9, 58, 44.2, 47, 36.6, 51.6, 73.8, 62.3, 63.7, 57.4, 24.3, 68.5, 60.2, 45, 53.1, 73.4, 65.7, 48.5, 43.9, 46.4, 50.4, 60.5%
- growth (M14 melanoma; runs of 2008): inactive: 62.5, 39.3, 53.2, 51, 53.7, 53.4, 52.6, 53, 58.6, 56.5, 62, 65, 64.2, 62.4, 28.6, 42.2, 46.2, 49.1, 46.6, 45.8, 41, 32.6, 38.3, 40.5, 34.4 (2×), 38.9, 46.3, 45.9, 99, 46.5, 20, 26.8, 43.1, 22.5, 28.2, 39.1, 37.5, 40.9, 62.2, 60.5, 57.9, 47.8, 59.7, 59.5, 71.4, 65.4, 47.2, 56.2, 18.2, 42.7, 47.3%
